Data: PubChem BioAssay AID504332 (National Center for Advancing Translational Sciences (NCATS), 2011)
The whole screen tested about 350,000 compounds, of which about 31,000 (8.9%) were called active. This list was built around the results that the source calls inconclusive (neither active nor inactive); the mix of calls is not that of the screen. Calls come from the whole dose curve; as a rule, active = well fitted inhibition curve with a large enough effect; inconclusive = small, poorly fitted or top-dose-only effect; inactive = no such curve, though single readings can be large or run the other way. Where the call is inconclusive, the potency comes from a doubtful curve fit.

molecular target: Histone-lysine N-methyltransferase EHMT2 (Homo sapiens) (UniProt Q96KQ7); assay: qHTS Assay for Inhibitors of Histone Lysine Methyltransferase G9a; conditions: G9a H3K9 monomethylation, AlphaScreen, 2 h; activity, negative = inhibition: at 59 µM (top of the series) unless noted; note: nearly all actives have a fitted effect of over 75% in size
UniProt Q96KQ7, sequence (Q96KQ7 whole entry, looked up): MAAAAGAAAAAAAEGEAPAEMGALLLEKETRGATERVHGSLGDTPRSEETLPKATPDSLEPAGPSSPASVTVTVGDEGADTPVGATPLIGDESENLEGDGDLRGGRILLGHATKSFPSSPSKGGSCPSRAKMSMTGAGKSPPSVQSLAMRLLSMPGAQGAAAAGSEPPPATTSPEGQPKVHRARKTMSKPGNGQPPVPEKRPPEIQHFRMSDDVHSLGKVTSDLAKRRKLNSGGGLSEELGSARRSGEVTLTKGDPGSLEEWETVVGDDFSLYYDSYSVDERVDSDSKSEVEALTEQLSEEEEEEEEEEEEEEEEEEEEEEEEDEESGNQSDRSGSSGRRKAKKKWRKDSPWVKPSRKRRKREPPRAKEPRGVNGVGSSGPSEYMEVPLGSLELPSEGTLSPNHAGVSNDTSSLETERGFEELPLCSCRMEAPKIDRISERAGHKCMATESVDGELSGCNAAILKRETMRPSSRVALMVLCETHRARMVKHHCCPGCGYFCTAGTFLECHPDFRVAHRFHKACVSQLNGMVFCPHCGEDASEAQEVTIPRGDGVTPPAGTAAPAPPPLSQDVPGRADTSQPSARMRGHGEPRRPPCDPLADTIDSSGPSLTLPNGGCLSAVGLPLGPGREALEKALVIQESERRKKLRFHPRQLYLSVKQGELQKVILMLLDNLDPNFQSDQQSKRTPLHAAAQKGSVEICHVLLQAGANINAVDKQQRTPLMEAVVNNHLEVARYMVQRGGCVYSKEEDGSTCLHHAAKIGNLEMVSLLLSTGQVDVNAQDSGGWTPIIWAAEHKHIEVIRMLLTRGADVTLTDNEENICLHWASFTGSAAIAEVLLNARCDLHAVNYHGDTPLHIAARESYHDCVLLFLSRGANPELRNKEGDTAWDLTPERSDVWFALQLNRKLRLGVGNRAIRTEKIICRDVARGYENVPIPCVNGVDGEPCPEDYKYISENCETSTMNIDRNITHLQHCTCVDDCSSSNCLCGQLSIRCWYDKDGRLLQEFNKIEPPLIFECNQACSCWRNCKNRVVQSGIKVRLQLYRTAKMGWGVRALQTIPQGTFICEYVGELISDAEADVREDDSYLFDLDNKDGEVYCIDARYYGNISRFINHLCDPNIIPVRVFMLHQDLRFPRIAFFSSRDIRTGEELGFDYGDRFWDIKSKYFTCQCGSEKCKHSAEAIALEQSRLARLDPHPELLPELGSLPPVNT
Procedure, shortened: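 G9a (20 nM) was preincubated 15 min with compound, then reacted 2 h at room temperature with 500 nM biotin-H3K9 peptide and 20 µM SAM. Monomethyl-H3K9 detected by AlphaScreen using anti-H3K9me1 antibody.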
% is set by controls: 0 for no effect and ±100 for the full control effect; potency is the fitted concentration of half-maximal effect; tags give direction and shape of the fitted curve.

| Structure (SMILES) | activity, negative = inhibition | Potency |
| --- | --- | --- |
| CCOc1ccccc1-n1nnnc1SC(C)C(=O)OC (stereo not drawn) | inactive: 0.536% [at 102 µM] | – |
| Cn1c(=O)[nH]c(=O)c2c1nc(SCCO)n2CCCc1ccccc1 | – | inconclusive: 79.4 µM [inhibitor, single point] |
| O=S(=O)(c1ccc(S(=O)(=O)N2CCN3CCCC3C2)cc1)N1CCCC1 (stereo not drawn) | – | inconclusive: 25.1 µM [inhibitor, single point] |
| S=C(Nc1cccc2ccccc12)NC1CCCCC1 | – | active: 50.1 µM |
| O=C(NC12CC3CC(CC(C3)C1)C2)c1ccc(-c2ccc(Br)cc2)o1 | – | active: 11.2 µM |
| COc1ccc(CC(NC(C)=O)C(=O)NC2CCN(C(=O)C3CCCCC3)CC2)cc1OC (stereo not drawn) | inactive: 19.3% [at 102 µM] | – |
| CCc1nnc(NC(=O)C2CCCCC2)s1 | inconclusive: -128% [inhibitor] | – |
| CN1CCN(C2=Cc3ccccc3Sc3cc(F)ccc32)CC1 | – | inconclusive: 25.1 µM [inhibitor, single point] |
| O=C(CSc1nc2ccccc2s1)Nc1cc(C(=O)O)cc(C(=O)O)c1 | – | active: 25.1 µM |
| Cc1cccc(NC(=O)C2C3CCC4C(CCC32)C4(Cl)Cl)c1 (stereo not drawn) | inactive: -7.51% | – |
| O=C(CCCCCn1c(=S)[nH]c2ccc(Br)cc2c1=O)NCC1CCCO1 (stereo not drawn) | – | inconclusive: 89.1 µM [inhibitor, single point] |
| O=C(O)COc1ccc(S(=O)(=O)c2ccc(OCC(=O)O)cc2)cc1 | – | inconclusive: 0.708 µM [inhibitor, full curve, poor fit] |
| CCOC(=O)c1cc(-c2ccc(OC)cc2)n(CCC(=O)NCc2ccc(OC)cc2)c1C | inactive: -35.6% | – |
| COc1cc(/C=N/n2c(COc3ccccc3)n[nH]c2=S)cc(OC)c1OC(C)=O | – | active: 10 µM |
| Cc1ccc(NC(=S)N2CCC(c3ccc(C)cc3)C2)cc1 (stereo not drawn) | – | active: 10 µM |
| Cc1[nH]nc(SCC(=O)N2CCC(C)CC2)c1[N+](=O)[O-] | – | inconclusive: 39.8 µM [inhibitor, single point] |
| Cc1cc2c(s1)c1cnn(CC(=O)NCCc3ccccc3)c(=O)c1n2C | – | inconclusive: 79.4 µM [inhibitor, single point] |
| O=C(C1CCCO1)N1CCN(Cc2c(O)ccc3ccccc23)CC1 (stereo not drawn) | – | active: 1.41 µM |
| COC(=O)C1=C(N)Oc2c(oc(CO)cc2=O)C1c1ccc(F)cc1 (stereo not drawn) | – | inconclusive: 79.4 µM [inhibitor, partial curve, poor fit] |
| CCN(CC)c1nc2ccccc2[nH]c1=O | – | active: 31.6 µM |
| COc1ccc(Nc2c3ccccc3nc3ccccc23)cc1 | – | active: 39.8 µM |
| COc1ccc(NC(=O)C2C3C=CC(C3)C2C(=O)O)cc1 (stereo not drawn) | inactive: 3.16% [at 102 µM] | – |
| Cc1cc(N(CCO)CCO)nc(-n2nc(C)cc2C)n1 | – | active: 39.8 µM |
| Oc1[nH]c2ccccc2c1N=NC(=S)N1CCOCC1 | – | active: 31.6 µM |
| Cc1ccccc1C(=O)Nc1nnc2n1CCS2 | – | active: 8.91 µM |
| CN(C(=O)COC(=O)c1ccc2c(c1)OCCO2)C1CCCCC1 | – | inconclusive: 79.4 µM [inhibitor, partial curve, poor fit] |

| Structure (SMILES) | activity, negative = inhibition | Potency |
| --- | --- | --- |
| Cn1cccc1C(=O)N1CCC2(CC1)CCN(C(c1ccccc1)c1ccccc1)CC2 | inactive: -1.58% [at 12.7 µM] | – |
| CC(C)OP(=O)(c1ccc(N(C)C)cc1)C(Nc1ccccc1)c1ccccc1 (stereo not drawn) | – | inconclusive: 6.31 µM [inhibitor, full curve, poor fit] |
| CC(=O)c1cccc(CN2CCCC(C(=O)Nc3ccc(-c4ccco4)cc3)C2)c1 (stereo not drawn) | – | active: 10 µM |
| CCc1ccc(CCC(=O)Nc2ccc(C(=O)O)cc2)o1 | inactive: 18.8% [at 102 µM] | – |
| CC(=O)N1CCN(c2ccc(NCc3ccc(C)s3)cc2)CC1 | – | active: 44.7 µM |
| Cc1nc2ccc(NC(=O)N3CCCCC3)cc2nc1C | inactive: 16.7% | – |
| CCOc1ccc(NC(=O)CN(C)C(=O)c2cc(S(=O)(=O)N3CCCCC3)ccc2C)cc1OCC | inactive: -31.9% [at 102 µM] | – |
| CCOC(=O)C(C#N)=C1CCN(Cc2ccccc2)CC1 | – | inconclusive: 70.8 µM [inhibitor, partial curve, poor fit] |
| O=C1C2CCCN2C(=O)N1CCCCN1CCN(c2cccc(Cl)c2)CC1 (stereo not drawn) | – | inconclusive: 89.1 µM [inhibitor, single point] |
| Cc1nc2ccccn2c1C(=O)N/N=C/c1ccc([N+](=O)[O-])o1 | – | active: 50.1 µM |
| COC(=O)c1cccc(S(=O)(=O)N2CCC(c3nc4ccccc4o3)CC2)c1 | inactive: -12.5% | – |
| O=C(NCc1ccco1)c1cnc2n(c1=O)CCS2 | – | active: 50.1 µM |
| Cc1ccc(NCC(=O)Nc2cccc(S(=O)(=O)N(C)C)c2)cc1S(=O)(=O)N1CCCCCC1 | – | inconclusive: 44.7 µM [inhibitor, partial curve] |
| CCn1c(-c2cccn(Cc3ccc(Cl)cc3Cl)c2=O)n[nH]c1=S | – | active: 8.91 µM |
| CC(=O)c1sc(NC(=O)c2oc3ccc(F)cc3c2C)nc1C | inactive: -0.294% [at 12.7 µM] | – |
| CCCC(=O)NC(C)c1nc2ccccc2n1Cc1ccccc1 (stereo not drawn) | inactive: 10.1% | – |
| CCCc1cc(C(=O)N2CCCC(Nc3ccc(C)c(C)c3)C2)n(C)n1 (stereo not drawn) | – | active: 44.7 µM |
| CCSc1cc(C2C(C#N)=C(N)OC(C)=C2C(=O)OC)c(C)o1 (stereo not drawn) | – | inconclusive: 3.16 µM [inhibitor, single point] |
| CCCCNC(=S)N1CCn2cccc2C1c1ccccc1 (stereo not drawn) | – | active: 56.2 µM |
| COc1cc(OC)c(C2Nc3cccc4cccc(c34)N2)c(OC)c1 | – | active: 28.2 µM |
| CC(C)c1ccc(C2CC(=O)N3CN(Cc4ccco4)CSC3=C2C#N)cc1 (stereo not drawn) | – | active: 2.82 µM |
| CCOC(=O)c1c(C)[nH]c(C)c1S(=O)(=O)N1CCCC(C(=O)NCc2cccc(OC)c2)C1 (stereo not drawn) | inactive: -29.6% | – |
| COC/C=C/C1=CC2=CC(=O)C(C)(OC(=O)c3cnc4ccccc4n3)C(=O)C2=CN1CCN1CCOCC1 (stereo not drawn) | inconclusive: -80.5% [inhibitor] | – |
| O=C(O)CCCCCNC(=O)c1cccc(Br)c1 | inactive: -18.5% | – |
| O=C1CCC([N+](=O)[O-])C(c2cccc3ccccc23)N1 (stereo not drawn) | inactive: 21.7% [at 102 µM] | – |
| Cc1cnc(C(=O)OCC(=O)Nc2ccc(C)c(S(=O)(=O)N3CCCCC3)c2)cn1 | – | inconclusive: 31.6 µM [inhibitor, single point] |

| Structure (SMILES) | activity, negative = inhibition | Potency |
| --- | --- | --- |
| CN(C(=O)CSc1nc2ccccc2n1CCc1ccccc1)C1CCS(=O)(=O)C1 (stereo not drawn) | – | inconclusive: 1.78 µM [inhibitor, partial curve, poor fit] |
| Cc1cc(C(=O)Nc2ccc(Br)cc2)cs1 | – | active: 79.4 µM |
| Cc1ccc(C(OCC(O)CNC(C)c2ccccc2)c2ccccc2)cc1 (stereo not drawn) | – | active: 8.91 µM |
| Cn1cccc1/C=C1/SC(=O)N(CC(=O)N2CCCC2)C1=O | – | inconclusive: 50.1 µM [inhibitor, partial curve] |
| CN(CC(=O)Nc1cccc(F)c1)C(=O)CN1C(=O)C2CC=CCC2C1=O (stereo not drawn) | – | inconclusive: 89.1 µM [inhibitor, partial curve, poor fit] |
| COc1c(C)cc(NC(=O)c2ccc3c(c2)NC(=O)CO3)cc1C | inactive: -2.11% [at 102 µM] | – |
| Cc1ccc(N2CC(NS(=O)(=O)c3cccnc3)CC2=O)cc1 (stereo not drawn) | – | inconclusive: 100 µM [inhibitor, single point] |
| Cc1nc2nc(SCC(=O)NC3CCCCC3)nn2c(C)c1Cc1ccccc1Cl | – | inconclusive: 12.6 µM [inhibitor, partial curve, poor fit] |
| Cc1cc2cc(CNC(=O)c3ccc(S(=O)(=O)N4CCCC4)cc3)ccc2n1C | – | inconclusive: 35.5 µM [inhibitor, single point] |
| O=C(/C=C/c1ccco1)Nc1nc(-c2ccccc2)cs1 | – | inconclusive: 28.2 µM [inhibitor, single point] |
| COC(=O)CCCC1=CC2=CC(=O)C(C)(OC(=O)C3CCCC3)C(=O)C2=CO1 (stereo not drawn) | – | inconclusive: 3.16 µM [inhibitor, single point] |
| COc1ccc(-c2n[nH]c(=S)n2/N=C/C=C/c2ccccc2OC)cc1 | – | active: 1.26 µM |
| O=C(COC(=O)c1ccc(Br)o1)Nc1ncc(Cl)cc1Cl | – | inconclusive: 50.1 µM [inhibitor, partial curve] |
| Cc1ccc(-c2cn(-c3ccc(SC(F)F)cc3)c3[n+]2CCC3)cc1 | – | inconclusive: 39.8 µM [inhibitor, single point] |
| O=C(Nc1c2c(nn1-c1ccc(Cl)cc1)CS(=O)(=O)C2)c1ccc2c(c1)OCO2 | – | inconclusive: 89.1 µM [inhibitor, partial curve, poor fit] |
| COc1ccccc1N1CCN(CC(O)c2c(C)[nH]c3ccccc23)CC1 (stereo not drawn) | – | inconclusive: 89.1 µM [inhibitor, single point] |
| COc1cccc(N2CCN(C(=O)c3cc4c(=O)oc5ccc(C)cc5c4s3)CC2)c1 | inactive: -1.01% | – |
| Cc1noc(C)c1COc1ccccc1C(=O)N1CCN(S(=O)(=O)c2ccccc2F)CC1 | – | inconclusive: 3.98 µM [inhibitor, partial curve, poor fit] |
| CC(C)(C)C(=O)Nc1c(Cl)cccc1OC(F)(F)F | inactive: 4.14% [at 102 µM] | – |
| O=[N+]([O-])c1cccnc1-n1cnc2ccccc21 | – | active: 44.7 µM |
| COc1cc(NC(=O)c2ccc(C)cc2C)ccc1NC(=O)c1cccs1 | inactive: 7.44% [at 102 µM] | – |
| CC(=O)c1ccc(N2CCN(S(=O)(=O)c3cc(-c4cc(C)no4)ccc3C(C)C)CC2)cc1 | inactive: -6.58% | – |
| Cc1oc(/N=C/c2cccc([N+](=O)[O-])c2)c(C#N)c1C | – | inconclusive: 89.1 µM [inhibitor, single point] |
| CCOC(=O)c1c(CSC(=N)N)n(-c2ccc(Br)cc2)c2cc(Br)c(OC(C)=O)cc12 | – | active: 70.8 µM |
| Cc1cc(C)c(S(=O)(=O)n2cnc3ccccc32)c(C)c1 | – | active: 89.1 µM |
| O=C(Nc1cccc(Br)c1)c1ccc2nc(N3C(=O)CCC3=O)sc2c1 | – | inconclusive: 12.6 µM [inhibitor, partial curve] |
